The values that follow come from PubChem BioAssay (NCI).

SMILES strings stand for the structures. Values joined by “and” are separate entries in the source; they are usually repeats but may differ in a detail not shown here. Equal entries are not always repeated.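 1) Cells in 96-well plates. 2) Compound, 48 h, 5 concentrations. 3) Linear interpolation between surrounding doses. 4) Unreached endpoint = highest concentration. GI50 marks 50% less growth. At the TGI there is no net growth.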 Bounds are passed on as bounds.

The subject of this test is NCI-H322M lung. The experiment in a line: inhibition of tumour cell growth, NCI panel, 48 h.
`CCOc1ccc2[nH]c3c(C)c4ccncc4c(C)c3c2c1` returned a TGI of 2.43 µM.
In turn, `Cc1ccc2c(c1)C(=O)c1nc(C)ccc1C2=O` showed a TGI of 63.7 µM.
Consider `Cn1c(-c2c(N)n(Nc3cccc(Cl)c3)c3nc(C#N)c(C#N)nc23)nc2ccccc21`, for which the GI50 was 9.62 µM and the TGI amounted to 20.4 µM.
For the compound `CCOC(=O)C1=C(O)C2C3CC4C2C(O)=C(C(=O)OCC)C2C1C3C42` (stereo not drawn), the TGI is > 100 µM.
For the compound `O=C(O)CCS/C(=C\C(SCCC(=O)O)c1ccc(Cl)cc1)c1ccc(Cl)cc1` (stereo not drawn), the TGI is > 100 µM.
`COc1ccc(C(=O)O[C@H]2[C@@H]3C=CO[C@@H](OC4OC(CO)C(O)C(O)C4O)[C@@H]3[C@@]3(CO)O[C@@H]23)cc1O` (stereo partly drawn): the TGI was > 100 µM.
Consider `N#Cc1ccccc1C(Cl)(Cl)c1cnccn1`, for which the TGI is > 100 µM.
With `NC(N)=NC(N)=Nc1ccc(S(=O)(=O)O)cc1`, the TGI is > 100 µM.
Turning to `C=CCNc1nc2c(s1)C(=O)c1ccccc1C2=O`, the TGI came to 27.7 µM.
`COc1ccc(NC(=O)CSC2=C(Nc3cccc(Br)c3)C(=O)N(Cc3ccccc3)C2=O)cc1Cl`: the GI50 was 75.4 µM and the TGI was > 100 µM.
On to `CN(C)c1ccc(/C=C2\N=C(NNc3ccccc3)NC2=O)cc1`, for which the TGI was > 100 µM.
Turning to `CN(C)c1ccc(C=NCC2CCCN3CCCCC23)cc1` (stereo not drawn), the TGI is > 100 µM.
Take `Cc1[nH]nc(C(F)(F)F)c1N=NN(C)C`: the TGI was 31.9 µM.
Consider `CCCCCCCCCCCCCCCCCC1=NC(C)(C)CN1CC(C)O` (stereo not drawn), for which the GI50 was 13 µM and the TGI amounted to 26.1 µM.
Consider `CC[C@H](Nc1ncnc2nc[nH]c12)c1nc2cccc(F)c2c(=O)n1-c1ccccc1`, for which the GI50 was 13.6 µM and the TGI was found to be 98.1 µM.
In turn, `COc1ccc(NC(=O)/C(=C/c2ccccc2)C(C)=O)cc1` registered a TGI of 24.3 µM.
On to `O=C(O)C(O)C(O)C(=O)O` (stereo not drawn), for which the TGI is > 100 µM.
For `CS(=O)(=O)CCNCc1cc(-c2cc3c(Nc4ccc(OCc5cccc(F)c5)c(Cl)c4)ncnc3s2)cs1`, the GI50 is 7.59 µM and the TGI is > 25 µM.
As to `CC(C)(C)OC(=O)NC1CC2(C=C(Br)C(=O)C(Br)=C2)OC1=O` (stereo not drawn), the TGI is > 95.5 µM.
The same measure, in the same setting: the same measure for `Cc1nc(C)c(N2CCN(S(=O)(=O)N(Cc3ccccc3)Cc3ccccc3)CC2)c(=O)[nH]1`: > 100 µM.
On the same count and under the same terms, in the case of `CCCC(CCC(N)=O)(CCC(N)=O)[N+](=O)[O-]` it was > 100 µM; in that of `C#Cc1cccc(N2C(=O)c3c(c(-c4ccccc4)c(-c4ccc(Cc5ccc(-c6c(-c7ccccc7)c7c(c(-c8ccccc8)c6-c6ccccc6)C(=O)N(c6cccc(C#C)c6)C7=O)cc5)cc4)c(-c4ccccc4)c3-c3ccccc3)C2=O)c1`, > 100 µM.
As for `Cc1nc(N)nc2c1CCC(O)S2` (stereo not drawn), the GI50 was 12.7 µM and the TGI is 38.5 µM.
Turning to `COc1ccc(OC)c(NC(=O)CCC/C(CC(=O)c2ccc(O)c(OC)c2)=N\Nc2nnc(C)n2N)c1`, the TGI was > 100 µM.
As for `COc1ccc(/C=C/C(=O)/C=C/c2cc3ccccc3[nH]c2=O)cc1`, the GI50 was 13.9 µM and the TGI was determined as 33.2 µM.
As for `CCNc1cc(-c2cccc(OC(F)(F)F)c2)nc2ccc(N3CCCC3)cc12`, the GI50 was 2.75 µM.
Take `CC1/C=C/[C@@]2(C)CCC(C(C)(C)O)C2C(O)C[C@](C)(O)/C=C/C1` (stereo partly drawn): the TGI was > 100 µM.
Consider `c1ccc2c(c1)c1c(n2CCOCCN2CCCC2)CCCC1`, for which the TGI is > 100 µM.
Turning to `Clc1ccc(C2=NN=C3C(c4ccccc4)=Nc4ccccc4N3C2)cc1`, the TGI is > 37.2 µM.
Consider `COc1ccc(-c2cs/c(=N\N=C\c3ccc(O)cc3O)n2/N=C/c2ccc(O)cc2O)cc1`, for which the GI50 is 2.26 µM and the TGI came out at 6.34 µM.
For `CN(Cc1cnc2nc(N)nc(N)c2n1)c1ccc(C(=O)N[C@@H](CCC(=O)O)C(=O)O)cc1`, the TGI was > 250 µM.
Turning to `O=C(/C=C/c1ccc(-c2ccccc2)cc1)NCc1ccc(C(=O)NCc2ccccc2)cc1`, the TGI was > 100 µM.
Same read-out and setting: in the case of `O=C(c1nc2ccc([N+](=O)[O-])cc2[nH]c1=O)C(O)c1ccc2c(c1)OCO2` (stereo not drawn) it was > 100 µM.
With `O=C(O)Cc1ccc(Nc2nc3cc(C(F)(F)F)ccc3nc2C(=O)O)cc1`, the TGI was > 100 µM.
`COC(=O)CCC1=C(CC(=O)OC)C(C)(OC)N=C1NC(=O)OCc1ccccc1` (stereo not drawn): the TGI is > 100 µM.
For the compound `CS(=O)(=O)OCCN(CCOS(C)(=O)=O)c1ccc(C=Nc2cccc(Cl)c2)cc1`, the TGI amounted to 33.6 µM.
`CC(=N\N)/C(C)=N/N=C(C)/C(C)=N/N`: the TGI was > 100 µM.
Turning to `CC(C)(C)OC(=O)N(CCCCNC(=O)OCc1ccccc1)CCCNC(=O)OCc1ccccc1`, the TGI was > 100 µM.
For `CC(Oc1ccc2c(-c3ccccc3)cc(=O)oc2c1)C(=O)O` (stereo not drawn), the TGI is > 100 µM.
`O=C(NCCN1CCOCC1)c1cn2c(ccc3sc4ccccc4c(=O)c32)n1`: the TGI was > 100 µM.
For the compound `COc1cc2nc(SCc3cc(OC)c(OC)c(OC)c3)n(Cc3ccccc3)c(=O)c2cc1OC`, the GI50 is 7.3 µM and the TGI was > 100 µM.
On to `CC(C)c1cnn2c(NCc3ccccc3)cc(NC[C@H]3CCNC[C@@H]3O)nc12`, for which the GI50 was 0.637 µM and 0.494 µM; the TGI is 10.2 µM and 9.81 µM.
For the compound `CC1=C[C@H]2c3c([nH]c4ccccc34)C(c3c[nH]c4ccccc34)[C@H]2CC1` (stereo partly drawn), the TGI came to 22.9 µM.
The same measure, in the same setting: in the case of `Cc1ccccc1OC(C)C(=O)NN1C(=O)CSC1c1ccc(Cl)cc1` (stereo not drawn) it was 60.3 µM; in that of `COc1cc2c(cc1OC)C(=O)N(c1ccc(O)cc1)C2=O`, > 100 µM.
On to `CCOC(=O)C(Cc1c[nH]c2c(N(CCO)CCO)cccc12)(NC(C)=O)C(=O)OCC`, for which the GI50 is > 1000 µM and the TGI was > 1000 µM.
With `N#CN/C(N)=N/C/N=C(\N)NC#N`, the TGI was > 100 µM.
The same measure, in the same setting: the same measure for `CCc1ccc(NC(=O)NC(=O)c2ccccc2[N+](=O)[O-])cc1Oc1ncc(Cl)cn1`: > 100 µM; for `C=C(C(=O)O)[C@@H]1C[C@@H]2O[C@H]1[C@@H](O)[C@@H](C)CCCC(C)=CCC[C@@]2(C)O`: > 100 µM; for `COC(=O)C1Cc2cc3c(cc2C1=O)CCCC3` (stereo not drawn): > 100 µM.
Compound `CN(C)CCNc1ccc(CO)c2sc3ccc(O)cc3c(=O)c12` displayed a TGI of 14.9 µM.
On the same count and under the same terms, in the case of `c1ccc(C(NCC2CCO2)(c2ccccc2)c2ccccc2)cc1` (stereo not drawn) it was 32.5 µM.
As for `Cc1nc(-c2ccccc2)n2nc(NCCCN3CCOCC3)ncc12`, the GI50 was 9.48 µM and the TGI is > 25 µM.
For `O=S(=O)(NCCNc1nccc(-c2c(-c3ccc(F)c(O)c3)nc3sccn23)n1)c1ccc(F)cc1`, the GI50 was 3.36 µM and the TGI came out at 30.4 µM.
Turning to `O=C1c2ccccc2C(=O)c2cc(N=Nc3c(O)ccc4ccccc34)ccc21`, the TGI was > 100 µM.
For the compound `CC(=O)OC12C3C4C1C1C2C3C41OC(C)=O` (stereo not drawn), the TGI was > 100 µM.
Regarding `CC[n+]1oc(C(=O)c2ccc(Cl)cc2)c(-c2ccccc2)c1-c1ccccc1.[Cl][Fe]([Cl])([Cl])[Cl]`, the GI50 was > 100 µM and the TGI is > 100 µM.
The compound `C=CCC1CC(n2cc(C)c(=O)[nH]c2=O)OC1CO[Si](C)(C)C(C)(C)C` (stereo not drawn) registered a TGI of 28.6 µM.
Still for that read-out and setting: in the case of `C/C(=N\N=C(\N)SB(F)F)c1ccc2ccccc2c1` it was > 100 µM.
Turning to `O=[N+]([O-])c1cc(Cl)c2[nH]c3c(Cl)cc([N+](=O)[O-])cc3c2c1`, the GI50 is 0.599 µM and the TGI was > 100 µM.
For `OCc1ccc(N2CCc3cccc(F)c3C2)cc1Cl` the same measures were 1.39 µM and 7.62 µM.
Take `O=c1/c(=C/c2ccccc2[N+](=O)[O-])sc2nc3ccccc3n12`: the TGI is > 46.4 µM.
As for `[C](#Cc1ccccc1)[Hg][C]#Cc1ccccc1`, the GI50 was > 100 µM and the TGI is > 100 µM.
For the compound `CC1=NC2=Nc3nc(C)cc[n+]3CN2C=C1`, the TGI was > 100 µM.
On to `O=C(O)c1ccc(CI)cc1`, for which the TGI was 52.8 µM.
With `Cc1ccc(NC(=O)CCc2nc(N)nc(N)c2-c2ccccc2)cc1C`, the TGI is > 100 µM.
As for `O=C(/C=C/c1cccc(Oc2ccccc2)c1)NCc1ccc(C(=O)NCc2ccccc2)cc1`, the TGI was > 100 µM.
Consider `CC(NC(=O)NC(C)(C)C)NC(=O)C(N)CC(=O)O` (stereo not drawn), for which the TGI is > 100 µM.
Take `CN1C/C(=C\c2cccs2)C(O)/C(=C/c2cccs2)C1` (stereo not drawn): the TGI was > 100 µM.
`COC(=O)c1cc2c3ccccc3n3c(=O)c4cc5ccc(N(S(=O)(=O)c6ccc(C)cc6)S(=O)(=O)c6ccc(C)cc6)cc5nc4c(n1)c23`: the GI50 was > 100 µM and the TGI was > 100 µM.
As to `COc1ccc(NC(=O)CC2SC(=Nc3ccccc3C)NC2=O)c([N+](=O)[O-])c1` (stereo not drawn), the TGI is > 100 µM.
Same read-out and setting: the same measure for `O=C(OC1C2OC(=O)c3cc(O)c(O)c(O)c3Oc3cc4c(c(O)c3O)-c3c(cc(O)c(O)c3O)C(=O)OCC3OC(O)C(OC(=O)c5cc(O)c(O)c(O)c5Oc5cc6c(c(O)c5O)-c5c(cc(O)c(O)c5O)C(=O)OC1C(COC6=O)OC2O)C(OC(=O)c1cc(O)c(O)c(O)c1)C3OC4=O)c1cc(O)c(O)c(O)c1` (stereo not drawn): 58.8 µM.
On to `CCOC(=O)c1[nH]c(-c2[nH]c(-c3[nH]c(-c4[nH]c(C(=O)OCC)c(C)c4C(=O)OCC)c(C(=O)OCC)c3C)c(C)c2C(=O)OCC)c(C(=O)OCC)c1C`, for which the TGI is > 100 µM.
Take `C=C(CC(NC(=O)c1ccc(C(CC)Cc2cnc3nc(N)nc(N)c3n2)cc1)C(=O)O)C(=O)O` (stereo not drawn): the GI50 was > 100 µM and the TGI is > 100 µM.
`O=C(O)CCC(=O)c1ccc2c(c1)C(C(=O)O)CC2` (stereo not drawn): the TGI was > 100 µM.
The same measure, in the same setting: the same measure for `CC1(C)OC2[C@@H](CO[C@@]3([C@@H](O)CCO)OC(C)(C)O[C@@H]23)O1` (stereo partly drawn): > 100 µM; for `Cc1ccccc1NC(=O)c1cc(-c2ccc([N+](=O)[O-])cc2)nc(=S)[nH]1`: > 100 µM.
For `CCOC(=O)c1cc2cc3c4c(c2oc1=O)CCCN4CCC3`, the TGI was > 100 µM.
Turning to `Nc1[nH]nc(Nc2ccc(Cl)cc2)c1P(=O)(c1ccccc1)c1ccccc1`, the TGI is > 100 µM.
`O=c1cc(CO)oc2c3c(cc(O)c12)OCC(COC1OC(CO)C(O)C(O)C1O)=CC3` (stereo not drawn): the TGI was > 100 µM.
Still for that read-out and setting: in the case of `COC12CCC(=O)C=C1c1ccccc1N2C(C)=O` (stereo not drawn) it was > 100 µM.
In the case of `O=S(=O)(NC1=NCCN1C(=S)SN1CCn2c1nsc2=S)c1cccc2ccccc12`, the GI50 is 34.1 µM and the TGI is > 100 µM.
Take `CS(=O)(=O)c1nc(-c2cc3c(c(S(C)(=O)=O)n2)CCCC3)cc2c1CCCCC2`: the TGI was > 100 µM.
